According to the supplement of paper PMC3334620:
Whole data set: some 33,000 sequences, median “E-score (-0.5 to 0.5)” near -0.035, cut for the highest 2% near 0.34. The list shows a part of the results.

What follows are sequences tested against T1, Mot3 (UniProt P54785) (assay: PBM E-score (8-mer binding enrichment) (E-score (-0.5 to 0.5)); higher = stronger / more preferred TF binding; most listed sequences are background and not binding sites). Conditions: protein concentration: 200 nM; construct: GST-full length.
T1 sequence: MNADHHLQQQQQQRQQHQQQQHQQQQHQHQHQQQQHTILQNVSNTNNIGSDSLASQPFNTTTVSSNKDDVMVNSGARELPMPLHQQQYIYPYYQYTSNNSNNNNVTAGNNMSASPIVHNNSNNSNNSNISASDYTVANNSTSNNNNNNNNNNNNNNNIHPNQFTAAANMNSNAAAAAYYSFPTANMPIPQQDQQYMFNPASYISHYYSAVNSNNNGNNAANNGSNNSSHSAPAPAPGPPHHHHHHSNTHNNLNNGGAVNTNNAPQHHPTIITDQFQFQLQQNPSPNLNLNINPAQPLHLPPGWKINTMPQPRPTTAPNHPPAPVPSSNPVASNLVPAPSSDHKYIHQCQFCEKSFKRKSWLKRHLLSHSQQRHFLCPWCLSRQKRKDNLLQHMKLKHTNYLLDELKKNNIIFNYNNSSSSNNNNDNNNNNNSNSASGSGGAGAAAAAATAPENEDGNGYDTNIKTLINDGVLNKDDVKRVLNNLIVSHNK
Method in brief: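 Universal all-10-mer Agilent arrays, double-stranded by primer extension on fresh or once-stripped slides, were probed with about 100-200 nM GST-tagged yeast transcription factors made by PURExpress. Fluorescent anti-GST detected bound protein, and masliner normalised the scans. E-scores from the Universal PBM Analysis Suite were given to each ungapped eight-base word pooled with its reverse complement.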

Sequence | PBM E-score
AACCAACT | 0.0514
GCAGGGCA | 0.0868
ACGCTCAG | -0.226
AAAACATG | 0.351
CAGTTACA | 0.145
AGCATAAT | -0.0134
GCCCTCTA | -0.212
GCGATTCA | -0.185
AGCTGATC | -0.17
CTCTCGAC | -0.285
AGTGAATC | -0.17
AAGGACCT | -0.0503
CGGTTAAG | 0.00195
CCGATCTC | -0.261
CGGTACAG | 0.00419
CGATGACG | -0.139
GCCAGTCA | -0.159
ACTCAGTC | -0.0479
GAATCCCC | -0.143
CACATCCG | -0.00122
GCAAGAGC | 0.113
AGTCGAGA | -0.184
ATCATCGA | -0.0664
TACGCAAA | 0.206
ATAGAACG | 0.132

Sequence | PBM E-score
TCAACGGA | -0.113
CAACGATC | -0.11
AAAGGCAG | 0.282
TAGTGGCA | -0.239
CACTGTGA | -0.103
CTCTTGAA | -0.132
AGATATCG | -0.126
AGGGACCG | -0.265
CGACGGGA | -0.118
AGTAGTAA | 0.119
AGGAGCGA | -0.242
ATTGGTCA | 0.0185
ATCCGGCA | -0.155
ATGACTAG | 0.0793
AATTAGAC | 0.0216
ACCTGGCC | -0.00623
CATATACG | 0.226
ACGGAAAC | -0.122
ACCGTTAA | 0.0703
GAGTTTGA | -0.0109
AACAAGGA | 0.227
GGAGCTCC | 0.0683
CCTGGGCG | -0.153
ATTTATCG | 0.0319
CGAGTGCC | 0.247

Sequence | PBM E-score
GATCGCGC | 0.0714
TCCCTAGA | -0.244
AAGAGGCT | -0.222
ACATCTTC | 0.0216
GGTCGGCA | -0.278
CACGATAA | 0.215
CATGCCGC | -0.137
CAACCTGA | -0.0558
CGTTCATA | 0.146
CGTTTGGC | -0.0998
AGGTTGTG | 0.0214
ATGGCCGC | -0.233
CACGTAGA | 0.308
CCCATTCA | -0.178
ACTTGAAA | -0.0285
ACCGATGA | -0.0168
ATACAACC | 0.262
CGACTAAC | 0.088
GAACCCCA | -0.0338
CCTAGCTA | -0.0896
CCTACCAG | -0.023
GCATACTA | -0.0476
TGAAATCA | 0.0139
CCGGGTCA | -0.346
CAGAAAGA | -0.106

Sequence | PBM E-score
CACATTTA | 0.143
AGATTCTA | 0.011
GCGTCTAC | -0.0217
ACCCGTAT | -0.00316
GCAAGGAA | 0.211
AGGCTTAG | 0.0248
AATTAAAC | 0.205
CAAAGTAC | 0.129
CACGAATA | 0.155
GACCCAGC | -0.167
CTTATTGA | -0.125
CTATCCGC | -0.0368
ACCACTTA | 0.0505
GCAGGAGA | -0.149
CAGGTCGG | -0.196
AGCGGGCG | -0.108
CAGCCATC | -0.103
ATACTACG | 0.0591
AACATTAC | 0.338
ACCGATAT | -0.09
CGAAACCA | -0.0235
CATCAATA | 0.101
ACGCCGAA | -0.273
ACAAACGC | 0.168
CGAACCCG | -0.223

Sequence | PBM E-score
CAATAGGA | 0.114
AAGCTTAT | -0.0472
ACTACCAT | 0.0224
ACTAGGGA | -0.02
TAGTAATA | 0.182
AGATGGGC | -0.217
CTCGGTAA | -0.0294
AGATATCT | -0.011
AAGAGACT | -0.214
CCATTCGG | 0.0904
AACAACAC | 0.349
AAAACTAA | 0.248
ATGGTGAA | -0.098
GCATTCCA | -0.203
ATGAATCC | -0.0433
CTGATGCA | 0.113
GATCCGGC | -0.31
AAACTATT | -0.0299
CAGCCGAA | -0.158
CACGGGAG | -0.0313
ACGGGCCT | -0.0518
CGCCGGTA | -0.247
AATATCGA | -0.0885
GTTAAGTA | 0.229
CTCATATA | -0.0207

Sequence | PBM E-score
CGCATCCC | -0.00798
AGCGCAGA | -0.107
CGTACGTA | 0.193
CGCGAAAC | -0.126
ATCTAGGA | -0.0161
ACAAGCGT | 0.0882
AATAAGGT | 0.0275
ATGATAAG | 0.253
CGTCCTGC | -0.0337
CGATGACC | -0.0584
ACAGCGAT | -0.118
TATACGCA | 0.272
CCACTCGG | -0.285
AGTCGCGC | -0.131
CCGATGAC | -0.105
ATCTTTAG | 0.0723
CATGTTGC | 0.297
CCAGTGCG | -0.239
ATTCCGCC | -0.038
CAAACAGA | -0.118
ACCAATTC | 0.0335
CGGCTCCA | -0.164
AGAGCGTC | -0.00811
GGCAGCTA | -0.0165
GTGCATCA | -0.00927

Sequence | PBM E-score
AGGTCAAT | -0.0391
ACGACCAT | -0.286
CCACGGTC | -0.385
ATTCAGGC | 0.246
CCAACCCA | -0.166
CGGATCGA | -0.229
ACACGGTG | 0.335
GGCGCTAC | -0.146
AAAGGCGA | 0.115
CGCCGACA | 0.0113
CACGCCGC | 0.0517
AGCGTGTC | 0.205
TATCTGGA | -0.175
ACTTCTAC | 0.226
GGTTGAGA | -0.0699
ACTGTACA | 0.217
TAAAAAAA | 0.179
ACGGCTTG | -0.0945
CGGTGTGC | -0.166
ATTCCTAG | -0.0454
CGGACCCA | -0.214
CAGAACTG | 0.0185
